# According to PMC7819943, “Rice protein-binding microarrays: a tool to detect cis-acting elements near promoter regions in rice”:
# Some of the results follow.
# Target: T1, OsWOX13 (Oryza sativa, UniProt Q5QMM3 1-267)
# T1 sequence: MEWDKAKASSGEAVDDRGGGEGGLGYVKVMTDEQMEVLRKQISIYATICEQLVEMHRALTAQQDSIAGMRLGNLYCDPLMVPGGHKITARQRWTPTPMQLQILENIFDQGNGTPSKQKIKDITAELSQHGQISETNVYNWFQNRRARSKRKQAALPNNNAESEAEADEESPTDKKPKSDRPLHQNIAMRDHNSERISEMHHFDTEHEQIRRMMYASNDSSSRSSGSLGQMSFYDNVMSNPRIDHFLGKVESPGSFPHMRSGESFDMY
# Test: protein-binding microarray (RPBM); PBS, 2% BSA, 51.3 ng/ul salmon testes DNA, 50 uM zinc acetate, 200 nM TF, 25 C, 1 h; high values mean tight binding
# Details: protein: recombinant; tags: N-terminal polyhistidine and DsRed monomer fusion (pET32a); label: CyDye5-dUTP incorporated in the synthesized complementary strand; 3' TTTTT single-stranded linker to array surface; dsDNA, one strand shown
# Procedure, shortened: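 Ni–NTA purification followed expression in E. coli BL21-CodonPlus of transcription factors fused N-terminally to a polyhistidine tag and DsRed. At 200 nM in PBS with 2% BSA, salmon testes DNA and 50 µM zinc acetate, the protein was incubated for 1 h at 25 °C with a custom Agilent array that had been primer-extended with Cy5-dUTP and blocked with 2% BSA. After washing, the array was read on an Axon 4000B scanner. The binding signal is per-feature fluorescence intensity in arbitrary units.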
row,Sequence,binding signal
1,CAAAATTTAACTAAGGATTACAACAATCCATAATGATGTACGGAGTCACCTAGTGCAG,9610 fluorescence intensity (a.u.)
2,ATTAATTAAGATAGTTGTGATCATCTCCAAGCTTAGCTAACGGAGTCACCTAGTGCAG,16900 fluorescence intensity (a.u.)
3,ATTAAATTCTCCATGGTTAATTATACTCTCTGGAATTTTCCGGAGTCACCTAGTGCAG,5400 fluorescence intensity (a.u.)
4,TAAATTGATAAATATAGTTAATCCTCTATAGATCAAGAATCGGAGTCACCTAGTGCAG,19400 fluorescence intensity (a.u.)
5,AATTTAATTTGAAGTATAAGTGGTTCCTATTTGCTTGAAACGGAGTCACCTAGTGCAG,14100 fluorescence intensity (a.u.)
6,GGTTAATGGAGATTCCATATGGCATACGATGGAGGAATTGCGGAGTCACCTAGTGCAG,8400 fluorescence intensity (a.u.)
7,CTCATCCAAATTTGTGTTTATAAATGTACTATATATATTTCGGAGTCACCTAGTGCAG,6890 fluorescence intensity (a.u.)
8,TAGCAGCCAATTAGTCCACTTAATCACCCATGGATCGCGACGGAGTCACCTAGTGCAG,13400 fluorescence intensity (a.u.)
9,TTTGATGCTGATTATAGGAAAATGTAAATGTTTCTATATACGGAGTCACCTAGTGCAG,6110 fluorescence intensity (a.u.)
10,TTTAAAATTCTAATCATCATCGTGGATGACTATGTCAGTACGGAGTCACCTAGTGCAG,10800 fluorescence intensity (a.u.)
11,CTATCAACTGATTGGCTTTACAAGTTGCAAAATCTATTATCGGAGTCACCTAGTGCAG,18900 fluorescence intensity (a.u.)
12,AAACAATCACGGATATCCAAATAAACAACCCGAAACCGAACGGAGTCACCTAGTGCAG,8660 fluorescence intensity (a.u.)
13,TAGATTAATTTGGAATGGAGGGAGTATATGAGTAAGCTAACGGAGTCACCTAGTGCAG,15400 fluorescence intensity (a.u.)
14,GAAAAGTACCCGTGATTGCAACAATTAAAGACGACAGGGACGGAGTCACCTAGTGCAG,14100 fluorescence intensity (a.u.)
15,CTTAATTACGTCATCGTCAACTCGCCGTTTAGTTTAGTCTCGGAGTCACCTAGTGCAG,37600 fluorescence intensity (a.u.)
16,CCCAATTGATGGCCCTAACAAAGTCAACAGCTGGATTATACGGAGTCACCTAGTGCAG,16200 fluorescence intensity (a.u.)
17,TAGATTGACTATAGACACTAAAGTTAAGAAAAGAATAACCCGGAGTCACCTAGTGCAG,29300 fluorescence intensity (a.u.)
18,CTAATTGGACATGAGTAGAGAGTTGATGCCGGGCTGTCACCGGAGTCACCTAGTGCAG,18700 fluorescence intensity (a.u.)
19,CAGGATTGACACTCGAACAACAGCTACCGCGTACAGCAAACGGAGTCACCTAGTGCAG,21300 fluorescence intensity (a.u.)
20,CTTTTCTTTTATTGTGGCTTGATTTATCACTAAAGGAACTCGGAGTCACCTAGTGCAG,3250 fluorescence intensity (a.u.)
21,AAAAGTTATTCCATTAATTAGCTACTCGGTCCATGCAAAGCGGAGTCACCTAGTGCAG,8950 fluorescence intensity (a.u.)
22,TCTTTTAATGATTAGAGATGATATATGAGTTTGCACCTGACGGAGTCACCTAGTGCAG,28600 fluorescence intensity (a.u.)
23,AATTGATGACATTTTATACCATTCAAAGTTTCAAACCTCTCGGAGTCACCTAGTGCAG,12600 fluorescence intensity (a.u.)
24,ATAGATTAATAGATGGGATGTGAATAGAGAAGTAGTATAGCGGAGTCACCTAGTGCAG,36400 fluorescence intensity (a.u.)
25,GGATTTGATTTGGGACAGATTTGAGATTAGGGTTTGGATTCGGAGTCACCTAGTGCAG,30200 fluorescence intensity (a.u.)
26,AACAATCAATTATCCGGCAAACTTCCGGACCGCATTGACACGGAGTCACCTAGTGCAG,26900 fluorescence intensity (a.u.)
27,TCCTGACACCTCCCAATCAATTCCCATCTCCGCCACTGCTCGGAGTCACCTAGTGCAG,15600 fluorescence intensity (a.u.)

row,Sequence,binding signal
1,ATATTATTTGATTTATTGTTAAATATACTTTCATGTACACCGGAGTCACCTAGTGCAG,18500 fluorescence intensity (a.u.)
2,ATTAGGCAAGGTGATTAGTGATACATTATGTGCTGTACCTCGGAGTCACCTAGTGCAG,4420 fluorescence intensity (a.u.)
3,ACATCAAATTCAAATTTGTTCCTTTCCTATACGGTTAGTACGGAGTCACCTAGTGCAG,3750 fluorescence intensity (a.u.)
4,AATCAGATAAACAAATTGAAATTTGAATTGAACTAAACAACGGAGTCACCTAGTGCAG,6660 fluorescence intensity (a.u.)
5,CTAGAATTTGACATAAATCAGTTTTGTTTTCTATAAGAACCGGAGTCACCTAGTGCAG,12600 fluorescence intensity (a.u.)
6,ACCAGCTCAGTTAATTGCAAGCAAGAATAAACAAGCTCGACGGAGTCACCTAGTGCAG,8180 fluorescence intensity (a.u.)
7,TATATACCATGATTAACACTATTGTATACCTCTGCCTCTTCGGAGTCACCTAGTGCAG,3690 fluorescence intensity (a.u.)
8,TTTAACACAAATGAGAACTTGATCGATTCCTCGTATTGTTCGGAGTCACCTAGTGCAG,3850 fluorescence intensity (a.u.)
9,ATAAATAGACTGAAATGTCCTCGTTCTCTGTTTCTCTTTCCGGAGTCACCTAGTGCAG,28700 fluorescence intensity (a.u.)
10,TTATAATTGTCATGCAATTATAATAACGTGGGTTAAATATCGGAGTCACCTAGTGCAG,27900 fluorescence intensity (a.u.)
11,TTTATGACTTTAAATAATTAATAGTACTATTATCTAAACTCGGAGTCACCTAGTGCAG,4140 fluorescence intensity (a.u.)
12,TACCCGGGTGATTAGAATCCATATAAGAGCAGACCGCTCTCGGAGTCACCTAGTGCAG,14400 fluorescence intensity (a.u.)
13,AAAGTTTAAACATAATAATTGATTTGCAGCTACCATAAGACGGAGTCACCTAGTGCAG,40600 fluorescence intensity (a.u.)
14,TATAATGTAATTGTAGTATAATTGCATTATAACTTACATGCGGAGTCACCTAGTGCAG,42500 fluorescence intensity (a.u.)
15,AATAAATAGTTTGATTGAATTATAGATAGGTGCCAAGAGGCGGAGTCACCTAGTGCAG,48400 fluorescence intensity (a.u.)
16,TTAGATAGATTAATATGTGATAGATCTTCACAAACAGACACGGAGTCACCTAGTGCAG,54900 fluorescence intensity (a.u.)
17,CATTAATTTCGCAATTAATTTTGCTCGATCGTTCTTGCATCGGAGTCACCTAGTGCAG,49600 fluorescence intensity (a.u.)
18,ACTTTAATAAATAGATAAGAAATCCTGCTAAAATTTTAGCCGGAGTCACCTAGTGCAG,4000 fluorescence intensity (a.u.)
19,AGCTAAAAGATCAATGATTTACAGAATAACAAGGGCAAAACGGAGTCACCTAGTGCAG,5960 fluorescence intensity (a.u.)
20,ACCTAATTAACCATCCGGCATGATCCATGCATGGCACAGCCGGAGTCACCTAGTGCAG,25400 fluorescence intensity (a.u.)
21,TAAAATTGGAATGATGTATTGGAAAAGTTAGAAATTTATGCGGAGTCACCTAGTGCAG,14300 fluorescence intensity (a.u.)
22,CAGTGTGATAATTTGCGTGTGGGAGACTAGTGGCACTATGCGGAGTCACCTAGTGCAG,4050 fluorescence intensity (a.u.)
23,GTGTTAATTATGTGATAAGTTGCCTAAGATCAATTGCCAGCGGAGTCACCTAGTGCAG,34600 fluorescence intensity (a.u.)
24,GCTGTTGTGATTATTGCCTGTTTCTCCACATCGGCTTGAACGGAGTCACCTAGTGCAG,18100 fluorescence intensity (a.u.)
25,CATACTATTTAAATTTAAATTATCATAAACCACATTAATTCGGAGTCACCTAGTGCAG,21500 fluorescence intensity (a.u.)
26,TACCTAATTATAAAATAAGTAAGGTTTCCGGGTATGTTTTCGGAGTCACCTAGTGCAG,16800 fluorescence intensity (a.u.)
27,TAGTAAATTCCCCAAATTTATCTATCACTGTAAGATGGTACGGAGTCACCTAGTGCAG,10400 fluorescence intensity (a.u.)
